Laboratory results taken from article PMC4336329 (PLoS ONE, 2015).
About 2,200 (0.71%) of roughly 310,000 compounds showed an effect of 50% or more. The effect is printed as a negative number. This is one part of the list.

Each compound was assayed against human ether-à-go-go-related gene (hERG) potassium channel (human, UniProt Q12809) (assay: primary screen, population patch clamp on CHO cells stably expressing hERG).
human ether-à-go-go-related gene (hERG) potassium channel, sequence (Q12809 whole entry, looked up): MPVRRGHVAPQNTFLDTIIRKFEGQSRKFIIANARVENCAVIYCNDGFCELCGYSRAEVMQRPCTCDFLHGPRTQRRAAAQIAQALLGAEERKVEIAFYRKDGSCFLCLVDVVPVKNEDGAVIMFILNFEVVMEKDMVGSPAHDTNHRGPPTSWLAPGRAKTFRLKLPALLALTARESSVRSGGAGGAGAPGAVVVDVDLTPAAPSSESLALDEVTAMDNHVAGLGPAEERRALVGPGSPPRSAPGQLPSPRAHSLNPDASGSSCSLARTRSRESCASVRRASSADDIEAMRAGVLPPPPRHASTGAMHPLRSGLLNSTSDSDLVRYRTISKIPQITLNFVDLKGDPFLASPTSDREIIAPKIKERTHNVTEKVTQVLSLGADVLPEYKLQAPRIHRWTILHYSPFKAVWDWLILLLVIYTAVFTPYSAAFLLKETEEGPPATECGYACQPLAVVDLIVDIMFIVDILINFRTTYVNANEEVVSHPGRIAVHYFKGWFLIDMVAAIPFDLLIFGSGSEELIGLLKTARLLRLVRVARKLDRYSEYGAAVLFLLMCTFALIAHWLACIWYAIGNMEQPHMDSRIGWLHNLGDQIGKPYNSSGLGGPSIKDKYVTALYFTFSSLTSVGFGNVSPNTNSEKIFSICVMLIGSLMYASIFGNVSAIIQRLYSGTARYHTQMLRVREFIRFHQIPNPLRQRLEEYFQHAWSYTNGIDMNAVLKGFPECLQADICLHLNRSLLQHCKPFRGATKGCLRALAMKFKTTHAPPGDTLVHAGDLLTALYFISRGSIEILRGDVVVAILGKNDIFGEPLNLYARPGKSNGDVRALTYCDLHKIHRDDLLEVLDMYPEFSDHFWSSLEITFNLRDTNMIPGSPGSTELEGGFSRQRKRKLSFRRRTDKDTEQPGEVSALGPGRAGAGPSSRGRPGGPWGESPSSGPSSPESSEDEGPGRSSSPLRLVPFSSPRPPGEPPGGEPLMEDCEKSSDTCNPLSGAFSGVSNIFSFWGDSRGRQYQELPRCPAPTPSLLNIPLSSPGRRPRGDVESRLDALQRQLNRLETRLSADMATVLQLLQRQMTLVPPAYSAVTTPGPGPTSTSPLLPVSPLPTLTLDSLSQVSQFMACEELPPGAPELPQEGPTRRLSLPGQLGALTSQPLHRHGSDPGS

Compound	hERG current change (%, negative = inhibition) at 1uM
O=C1C=CC[C@H](/C=C/C[C@@H](O)C[C@H](O)CCc2ccccc2)O1	6.81%
COc1ccc(CN2CCC(Cc3ccccc3)CC2)cc1OC.O=C(O)C(=O)O	-32.9%
C/C(=N\NC(=O)c1ccccn1)c1ccc(C(=O)O)s1	12.1%
CCCc1nc(NC2CCCCC2)c(C#N)c2c1COC(C)(C)C2	8.45%
COc1ccc(NC(=O)Cc2ccccc2)cc1	6.08%
COC(=O)C1=C(c2ccc(OCc3ccccc3)cc2)C[C@@H]2CC[C@H]1N2C(=O)NC1CCN(Cc2ccccc2)CC1	11.8%
COc1ccc(N2C(=O)CC(N3CCN(S(=O)(=O)c4cc(C)ccc4C)CC3)C2=O)cc1 (stereo not shown)	9.67%
CCCCC(=O)Nc1ccc(NC(=O)c2ccc([N+](=O)[O-])cc2Cl)cc1OC	6.31%
COCCn1cnnc1SCC(=O)Nc1ccc(Br)cc1F	8.74%
CN(Cc1ccccc1)c1ccc(C(CC(N)=O)NC(=O)c2ccc(Br)cc2)cc1[N+](=O)[O-] (stereo not shown)	11.4%
CCOCCCN(CCC#N)S(=O)(=O)c1ccc(S(=O)(=O)N2CCCC2)cc1	17.3%
Nc1ccccc1C(=O)NCC1(c2ccccc2)CCCC1	13.5%
O=C(O)c1ccc(Nc2nc3ccccc3nc2NS(=O)(=O)c2ccc(F)cc2)cc1	9.43%
O=C(NCC1CCCO1)C(c1ccncc1)N(Cc1cccs1)C(=O)CN1C(=O)c2ccccc2S1(=O)=O (stereo not shown)	7.4%
C=CCC1NS(=O)(=O)OC(CCCC)C1O (stereo not shown)	20.3%
O=C(CCCc1ccccc1)Nc1ccc2c(c1)OCCO2	14.9%
CCN(CC)Cc1oc(CO)cc(=O)c1O	30.5%
CN(CC(=O)Nc1c(Cl)cccc1Cl)C(=O)c1ccccc1-c1nc2ccccc2s1	2.92%
Cl.c1ccc2c(c1)CC(N1CCCCC1)c1ccccc1S2 (stereo not shown)	16.1%
O=c1cc(-c2ccccc2)nc(SCCOc2ccccc2Cl)[nH]1	5.2%
CCCCCc1nnc(NC(=O)CN2C(=O)C3CCCCC3C2=O)s1 (stereo not shown)	-0.34%
CCN(CC)S(=O)(=O)c1cccc(-c2nnc(SC(C)C#N)n2Cc2ccccc2)c1 (stereo not shown)	4.99%
COc1ccc(CNC(=S)Nc2cc(C)ccc2C)cc1	8%
Cc1cc(C(=O)CSc2nncs2)c(C)n1-c1c(C)n(C)n(-c2ccccc2)c1=O	13.3%
CC1CCN(Cc2ccc(-c3nnn(CC(=O)NC4CCCCC4)n3)cc2)CC1	9.74%
CSc1nsc2nc(=O)c(/C=C3\C(C)=Nc4ccc(C)cc43)c(N)n12	16.7%
CCCCCc1ccc(-c2ccc(/C=C/C(=O)O)cc2)nc1	8.27%
C=CC[N+]1(C)C2CCC1CC(O)C2.[Br-] (stereo not shown)	5.61%

Compound	hERG current change (%, negative = inhibition) at 1uM
CCN(CC(=O)NCc1cccs1)C(=O)c1ccc(S(=O)(=O)Nc2ccccc2F)cc1	-3.35%
CCOc1ccc(N(C(C)=O)C2C=CS(=O)(=O)C2)cc1 (stereo not shown)	1.17%
CCCCC12CN3CC(C)(CN(C1)C3c1ccc([N+](=O)[O-])o1)C2=O (stereo not shown)	-9.83%
COc1ccc(C2=NOC(Cn3nc(C(=O)NCc4ccco4)cc3-c3ccccc3)C2)cc1 (stereo not shown)	-44%
COc1ccc(N2CCN(S(=O)(=O)c3ccc(OC)cc3)CC2)cc1	1.07%
Cc1c(C(=O)N2CCN(c3ccccc3)CC2)sc2ncnc(N3CCC(C)CC3)c12	-4.87%
COC(=O)C1=C(c2ccc(F)cc2F)C[C@@H]2CC[C@H]1N2C(=O)NCCOc1ccc(OC)cc1	15.9%
CC(Oc1ccc2ccccc2c1)C(=O)NNC(=O)Nc1ccccc1F (stereo not shown)	12.3%
CC(=O)NC(Cc1cccc(F)c1)C(=O)NC1CCN(c2ncccc2[N+](=O)[O-])CC1 (stereo not shown)	17.9%
O=C(Nc1cccnc1)c1c(O)c2c(n(Cc3ccccc3)c1=O)CCCC2	8.92%
O=C(Nc1ccc(F)c(S(=O)(=O)N2CCOCC2)c1)C1CCCCC1	10.9%
CCCc1ccc(Oc2cc(Cl)nc(N)n2)cc1	2.58%
CCCCCNC(=O)c1c[nH]c2ccc(S(=O)(=O)N3CCC4(CC3)OCCO4)cc2c1=O	10.6%
COc1ccc(NC(=O)Nc2ccc3nsnc3c2)cc1	4.46%
COc1ccc(OC)c(C2CC(=O)c3c([nH]c(C(=O)OCC4CCCO4)c3C)C2)c1 (stereo not shown)	2.66%
Cc1ccc(OCCCC(=O)NNC(=O)c2ccncc2)cc1	13.4%
CC(CN1CCCC1)OC(=O)c1ccc(Br)cc1.Cl (stereo not shown)	2.4%
CSc1ccccc1C(=O)NCc1ccc(F)cc1	12.2%
COc1ccccc1-n1c(-c2cc(-c3ccco3)[nH]n2)n[nH]c1=S	16.2%
CC(OC(=O)c1ccc2c(=O)n3c(nc2c1)CCCCC3)C(=O)Nc1ccc(F)cc1Cl (stereo not shown)	14.5%
COc1ccc(OC)c(NC(=O)c2oc3c(c2C)C(O)CC(C)(C)C3)c1 (stereo not shown)	10.9%
CSc1nsc(SC)c1NC(=O)Nc1ccccc1C	11.2%
Cc1cccc2c(=O)cc(C)n(CC(=O)N3CCOCC3)c12	9.29%
O=C1NC(=O)C(Cc2c[nH]c3ccccc23)N1 (stereo not shown)	12.4%
NC(=O)CC(NC(=O)c1ccccc1)c1ccc(NCCc2ccc(Cl)cc2)c([N+](=O)[O-])c1 (stereo not shown)	4.8%
COC(=O)c1sc(S(=O)(=O)NCc2cccs2)c(C(=O)OC)c1C	7.05%
COc1ccc(C(CNC(=O)c2cc(SC)ccc2Cl)N(C)C)cc1 (stereo not shown)	5.64%
